In the supplement of paper PMC11055344:

Experiments:
[1] = compound: CC1(C)S[C@@H]2[C@H](NC(=O)Cc3ccccc3)C(=O)N2[C@H]1C(=O)O [penicillin G]; assay: Broth microdilution.
[2] = compound: CC1(C)S[C@@H]2[C@H](NC(=O)[C@H](N)c3ccc(O)cc3)C(=O)N2[C@H]1C(=O)O [amoxicillin]; assay: Broth microdilution.

Test System | MIC [1] | MIC [2]
Streptococcus pneumoniae isolate 339 (PBP alleles 1a 2b 2x: 2_0_6, serotype: 23A) | 0.03 µg/mL | ≤ 0.01 µg/mL
Streptococcus pneumoniae isolate 340 (PBP alleles 1a 2b 2x: 0_1_1, serotype: 23B1) | 0.125 µg/mL | 0.06 µg/mL
Streptococcus pneumoniae isolate 341 (PBP alleles 1a 2b 2x: 0_0_53, serotype: 10A) | 0.03 µg/mL | ≤ 0.01 µg/mL
Streptococcus pneumoniae isolate 342 (PBP alleles 1a 2b 2x: 0_0_3, serotype: 35F) | ≤ 0.01 µg/mL | ≤ 0.01 µg/mL
Streptococcus pneumoniae isolate 343 (PBP alleles 1a 2b 2x: 1_0_0, serotype: 15B/C) | 0.03 µg/mL | ≤ 0.01 µg/mL
Streptococcus pneumoniae isolate 344 (PBP alleles 1a 2b 2x: New_60_New, serotype: Non-typeable/NCC2b) | 0.5 µg/mL | 0.25 µg/mL
Streptococcus pneumoniae isolate 345 (PBP alleles 1a 2b 2x: 34_32_43, serotype: 19F) | 1 µg/mL | 1 µg/mL
Streptococcus pneumoniae isolate 346 (PBP alleles 1a 2b 2x: New_New_New, serotype: 35F) | 0.125 µg/mL | 0.06 µg/mL
Streptococcus pneumoniae isolate 347 (PBP alleles 1a 2b 2x: 0_0_3, serotype: 35F) | 0.03 µg/mL | ≤ 0.01 µg/mL
Streptococcus pneumoniae isolate 348 (PBP alleles 1a 2b 2x: 2_6_0, serotype: 11A) | 0.03 µg/mL | ≤ 0.01 µg/mL
Streptococcus pneumoniae isolate 349 (PBP alleles 1a 2b 2x: 0_0_0, serotype: 35B) | 0.03 µg/mL | 0.03 µg/mL
Streptococcus pneumoniae isolate 350 (PBP alleles 1a 2b 2x: 7_67_1, serotype: 23B1) | 0.25 µg/mL | 0.03 µg/mL
Streptococcus pneumoniae isolate 351 (PBP alleles 1a 2b 2x: 78_0_0, serotype: Serogroup 24) | ≤ 0.01 µg/mL | ≤ 0.01 µg/mL
Streptococcus pneumoniae isolate 352 (PBP alleles 1a 2b 2x: 2_0_2, serotype: 15B/C) | 0.03 µg/mL | ≤ 0.01 µg/mL
Streptococcus pneumoniae isolate 353 (PBP alleles 1a 2b 2x: 0_0_0, serotype: 15B/C) | 0.03 µg/mL | 0.03 µg/mL
Streptococcus pneumoniae isolate 354 (PBP alleles 1a 2b 2x: 7_1_171, serotype: 23B1) | 0.25 µg/mL | 0.125 µg/mL
Streptococcus pneumoniae isolate 355 (PBP alleles 1a 2b 2x: 2_0_2, serotype: 21) | 0.03 µg/mL | ≤ 0.01 µg/mL
Streptococcus pneumoniae isolate 356 (PBP alleles 1a 2b 2x: 7_1_New, serotype: 35B) | 0.25 µg/mL | 0.25 µg/mL
Streptococcus pneumoniae isolate 357 (PBP alleles 1a 2b 2x: 2_0_2, serotype: 3) | ≤ 0.01 µg/mL | ≤ 0.01 µg/mL
Streptococcus pneumoniae isolate 358 (PBP alleles 1a 2b 2x: 2_0_2, serotype: 15B/C) | ≤ 0.01 µg/mL | ≤ 0.01 µg/mL
Streptococcus pneumoniae isolate 359 (PBP alleles 1a 2b 2x: 2_6_0, serotype: 11A) | ≤ 0.01 µg/mL | ≤ 0.01 µg/mL
Streptococcus pneumoniae isolate 360 (PBP alleles 1a 2b 2x: 1_0_0, serotype: 15A) | 0.03 µg/mL | ≤ 0.01 µg/mL
Streptococcus pneumoniae isolate 361 (PBP alleles 1a 2b 2x: 2_0_2, serotype: 15B/C) | ≤ 0.01 µg/mL | ≤ 0.01 µg/mL
Streptococcus pneumoniae isolate 362 (PBP alleles 1a 2b 2x: 0_1_1, serotype: 23B1) | 0.125 µg/mL | 0.06 µg/mL
Streptococcus pneumoniae isolate 363 (PBP alleles 1a 2b 2x: 1_0_187, serotype: 19A) | ≤ 0.01 µg/mL | ≤ 0.01 µg/mL
Streptococcus pneumoniae isolate 364 (PBP alleles 1a 2b 2x: 0_0_2, serotype: 10A) | 0.03 µg/mL | ≤ 0.01 µg/mL

Test System | MIC [1] | MIC [2]
Streptococcus pneumoniae isolate 365 (PBP alleles 1a 2b 2x: 2_0_2, serotype: 15A) | 0.03 µg/mL | 0.03 µg/mL
Streptococcus pneumoniae isolate 366 (PBP alleles 1a 2b 2x: 1_0_0, serotype: 15A) | ≤ 0.01 µg/mL | ≤ 0.01 µg/mL
Streptococcus pneumoniae isolate 367 (PBP alleles 1a 2b 2x: 1_0_0, serotype: 15A) | 0.03 µg/mL | ≤ 0.01 µg/mL
Streptococcus pneumoniae isolate 368 (PBP alleles 1a 2b 2x: 2_0_2, serotype: 15B/C) | ≤ 0.01 µg/mL | ≤ 0.01 µg/mL
Streptococcus pneumoniae isolate 369 (PBP alleles 1a 2b 2x: 0_6_2, serotype: 16F) | 0.03 µg/mL | 0.03 µg/mL
Streptococcus pneumoniae isolate 370 (PBP alleles 1a 2b 2x: 4_12_7, serotype: 35B) | 2 µg/mL | 2 µg/mL
Streptococcus pneumoniae isolate 371 (PBP alleles 1a 2b 2x: 0_0_0, serotype: 34) | 0.03 µg/mL | ≤ 0.01 µg/mL
Streptococcus pneumoniae isolate 372 (PBP alleles 1a 2b 2x: 0_0_3, serotype: 35F) | 0.03 µg/mL | ≤ 0.01 µg/mL
Streptococcus pneumoniae isolate 373 (PBP alleles 1a 2b 2x: 2_3_2, serotype: 3) | ≤ 0.01 µg/mL | ≤ 0.01 µg/mL
Streptococcus pneumoniae isolate 374 (PBP alleles 1a 2b 2x: 0_0_0, serotype: 15B/C) | 0.03 µg/mL | ≤ 0.01 µg/mL
Streptococcus pneumoniae isolate 375 (PBP alleles 1a 2b 2x: 0_0_53, serotype: 10A) | ≤ 0.01 µg/mL | ≤ 0.01 µg/mL
Streptococcus pneumoniae isolate 376 (PBP alleles 1a 2b 2x: 2_0_6, serotype: 33F) | ≤ 0.01 µg/mL | ≤ 0.01 µg/mL
Streptococcus pneumoniae isolate 377 (PBP alleles 1a 2b 2x: 0_0_3, serotype: 35F) | ≤ 0.01 µg/mL | ≤ 0.01 µg/mL
Streptococcus pneumoniae isolate 378 (PBP alleles 1a 2b 2x: 0_0_New, serotype: 35B) | 0.06 µg/mL | 0.03 µg/mL
Streptococcus pneumoniae isolate 379 (PBP alleles 1a 2b 2x: 0_0_3, serotype: 35F) | 0.03 µg/mL | ≤ 0.01 µg/mL
Streptococcus pneumoniae isolate 380 (PBP alleles 1a 2b 2x: 11_4_0, serotype: 37) | ≤ 0.01 µg/mL | ≤ 0.01 µg/mL
Streptococcus pneumoniae isolate 381 (PBP alleles 1a 2b 2x: 1_0_0, serotype: 15A) | 0.03 µg/mL | ≤ 0.01 µg/mL
Streptococcus pneumoniae isolate 382 (PBP alleles 1a 2b 2x: 1_2_2, serotype: 22F) | 0.03 µg/mL | ≤ 0.01 µg/mL
Streptococcus pneumoniae isolate 383 (PBP alleles 1a 2b 2x: 0_0_3, serotype: 35F) | 0.03 µg/mL | ≤ 0.01 µg/mL
Streptococcus pneumoniae isolate 384 (PBP alleles 1a 2b 2x: 0_0_53, serotype: 10A) | ≤ 0.01 µg/mL | ≤ 0.01 µg/mL
Streptococcus pneumoniae isolate 385 (PBP alleles 1a 2b 2x: 0_0_53, serotype: 10A) | 0.03 µg/mL | ≤ 0.01 µg/mL
Streptococcus pneumoniae isolate 386 (PBP alleles 1a 2b 2x: 2_0_2, serotype: 21) | ≤ 0.01 µg/mL | ≤ 0.01 µg/mL
Streptococcus pneumoniae isolate 387 (PBP alleles 1a 2b 2x: 2_6_0, serotype: 11A) | ≤ 0.01 µg/mL | ≤ 0.01 µg/mL
Streptococcus pneumoniae isolate 388 (PBP alleles 1a 2b 2x: 7_67_1, serotype: 23B1) | 0.125 µg/mL | 0.06 µg/mL
Streptococcus pneumoniae isolate 389 (PBP alleles 1a 2b 2x: 15_76_New, serotype: 11A) | 2 µg/mL | 4 µg/mL
Streptococcus pneumoniae isolate 390 (PBP alleles 1a 2b 2x: 0_0_3, serotype: 35F) | 0.03 µg/mL | 0.03 µg/mL

MIC of nasopharyngeal S. pneumoniae isolates by broth microdilution (range and time not stated); higher = less susceptible. No active / inactive call per row; the paper counts penicillin above 0.06 and amoxicillin above 0.5 mg/L as non-susceptible (EUCAST). The lowest value, 0.01, is taken as the floor ('<='); the source prints it plain. Penicillin G is assumed for 'penicillin'. Isolates are numbered anew. PBP alleles are the type numbers of penicillin-binding proteins 1a, 2b and 2x; equal numbers mean equal sequences.
